The supplement of paper PMC4967469
Lines with a small IC50 respond at low doses; a fit beyond the top or the lowest dose is shown as a bound at that dose. AUC is the area under the same curve over the 256-fold range up to the top dose, as a fraction; values near 1 show little effect. For some of these results: An inferred top dose was calculated from the reported fits.

Tests used:
Assay in all cases: Viability of human cancer cell lines after 72 h of drug (GDSC screen)
piperlongumine = compound: COc1cc(/C=C/C(=O)N2CCC=CC2=O)cc(OC)c1OC [piperlongumine]; conditions: top dose 10 µM
Procedure: (§1)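 Human cancer cell lines in 384-well plates, medium with 10% serum, drug for 72 h over a 256-fold dose range (nine 2-fold or five 4-fold steps up to the top dose). Adherent lines were fixed and stained with the nucleic acid dye Syto60, suspension lines read with resazurin; signal relative to control wells, capped at 0 and 100%. One two-parameter sigmoid per drug and line, fitted in a mixed model over all curves with the slope shared within a line.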

GW843682X = compound: COc1cc2ncn(-c3cc(OCc4ccccc4C(F)(F)F)c(C(N)=O)s3)c2cc1OC [GW843682X]; conditions: top dose 0.256 µM
Procedure: as §1

PIK-93 = compound: CC(=O)Nc1nc(C)c(-c2ccc(Cl)c(S(=O)(=O)NCCO)c2)s1 [PIK-93]; conditions: top dose 20 µM
Procedure: as §1

ABT-263 = compound: CC1(C)CCC(c2ccc(Cl)cc2)=C(CN2CCN(c3ccc(C(=O)NS(=O)(=O)c4ccc(N[C@H](CCN5CCOCC5)CSc5ccccc5)c(S(=O)(=O)C(F)(F)F)c4)cc3)CC2)C1 [ABT-263]; conditions: top dose 2 µM; top dose inferred
Procedure: as §1

Salubrinal = compound: O=C(/C=C/c1ccccc1)NC(NC(=S)Nc1cccc2cccnc12)C(Cl)(Cl)Cl [Salubrinal]; conditions: top dose 16 µM; top dose inferred
Procedure: as §1

GW 441756 = compound: Cn1cc(/C=C2\C(=O)Nc3cccnc32)c2ccccc21 [GW 441756]; conditions: top dose 2 µM; top dose inferred
Procedure: as §1

Cell Line | AUC (piperlongumine) | IC50 (piperlongumine) [µM] | AUC (GW843682X) | IC50 (GW843682X) [µM] | AUC (PIK-93) | IC50 (PIK-93) [µM] | AUC (ABT-263) | IC50 (ABT-263) [µM] | AUC (Salubrinal) | IC50 (Salubrinal) [µM] | AUC (GW 441756) | IC50 (GW 441756) [µM]
A388 (skin, adherent) | 0.764 | 4.14 | 0.482 | 0.0141 | 0.825 | 14.4 | 0.678 | 0.426 | 0.93 | > 16 | 0.958 | > 2
A498 (kidney, adherent) | 0.69 | 2.81 | 0.901 | > 0.256 | 0.965 | > 20 | 0.971 | > 2 | 0.887 | > 16 | 0.897 | > 2
ALL-PO (lymphoblastic leukaemia, suspension) | 0.804 | 5.37 | 0.329 | 0.00518 | 0.35 | 0.468 | 0.064 | < 0.00781 | 0.709 | 4.04 | 0.858 | 1.79
ALL-SIL (T-cell leukaemia, suspension) | 0.777 | 3.45 | 0.42 | 0.01 | 0.533 | 1.52 | 0.405 | 0.0713 | 0.796 | 6.35 | 0.989 | > 2
AM-38 (glioma, semi-adherent) | 0.822 | 5.98 | 0.988 | > 0.256 | 0.812 | 11 | 0.84 | 1.42 | 0.964 | > 16 | 0.973 | > 2
AMO-1 (haematopoietic neoplasm, suspension) | 0.769 | 3.26 | 0.485 | 0.0147 | 0.38 | 0.617 | 0.989 | > 2 | 0.942 | > 16 | 0.936 | > 2
ARH-77 (myeloma, suspension) | 0.785 | 4.1 | 0.632 | 0.0364 | 0.548 | 1.68 | 0.956 | > 2 | 0.923 | > 16 | 0.988 | > 2
ATN-1 (T-cell lymphoblastic leukaemia, suspension) | 0.918 | > 10 | 0.48 | 0.0142 | 0.584 | 2.09 | 0.049 | < 0.00781 | 0.844 | 10.4 | 0.709 | 0.463
BB49-HNC (head and neck, adherent) | 0.624 | 1.58 | 0.848 | > 0.256 | 0.937 | > 20 | 0.965 | > 2 | 0.952 | > 16 | 0.978 | > 2
BC-1 (B-cell lymphoma, suspension) | 0.733 | 2.55 | 0.857 | 0.161 | 0.809 | 8.58 | 0.962 | > 2 | 0.902 | 15.5 | 0.984 | > 2
BE2-M17 (neuroblastoma, adherent) | 0.789 | 4.55 | 0.524 | 0.0186 | 0.952 | > 20 | 0.983 | > 2 | 0.964 | > 16 | 0.944 | > 2
BE-13 (lymphoblastic leukaemia, suspension) | 0.809 | 4.82 | 0.231 | 0.00284 | 0.617 | 2.57 | 0.273 | 0.0297 | 0.809 | 7.69 | 0.984 | > 2
BL-41 (Burkitt lymphoma, suspension) | 0.76 | 2.78 | 0.415 | 0.00991 | 0.459 | 0.99 | 0.994 | > 2 | 0.862 | 8.72 | 0.994 | > 2
BT-474 (breast, adherent) | 0.81 | 6.07 | 0.946 | > 0.256 | 0.726 | 5.98 | 0.982 | > 2 | 0.952 | > 16 | 0.965 | > 2
BV-173 (chronic myeloid leukaemia, suspension) | 0.763 | 3.2 | 0.522 | 0.0183 | 0.857 | 13.2 | 0.139 | 0.0114 | 0.837 | 8.97 | 0.964 | > 2
Becker (glioma, adherent) | 0.635 | 1.55 | 0.602 | 0.0317 | 0.842 | 16.7 | 0.965 | > 2 | 0.768 | 6.7 | 0.984 | > 2
C2BBe1 (large intestine, adherent) | 0.828 | 7.36 | 0.957 | > 0.256 | 0.924 | > 20 | 0.858 | > 2 | 0.975 | > 16 | 0.981 | > 2
CA46 (Burkitt lymphoma, suspension) | 0.738 | 3.16 | 0.906 | > 0.256 | 0.614 | 2.64 | 0.985 | > 2 | 0.86 | 15.1 | 0.985 | > 2

Cell Line | AUC (piperlongumine) | IC50 (piperlongumine) [µM] | AUC (GW843682X) | IC50 (GW843682X) [µM] | AUC (PIK-93) | IC50 (PIK-93) [µM] | AUC (ABT-263) | IC50 (ABT-263) [µM] | AUC (Salubrinal) | IC50 (Salubrinal) [µM] | AUC (GW 441756) | IC50 (GW 441756) [µM]
CAS-1 (glioma, adherent) | 0.857 | > 10 | 0.958 | > 0.256 | 0.823 | 18 | 0.976 | > 2 | 0.959 | > 16 | 0.982 | > 2
CCRF-CEM (lymphoblastic leukaemia, suspension) | 0.687 | 1.89 | 0.394 | 0.00862 | 0.136 | 0.119 | 0.24 | 0.026 | 0.908 | 16 | 0.982 | > 2
CESS (acute myeloid leukaemia, suspension) | 0.827 | 4.96 | 0.352 | 0.00664 | 0.135 | 0.114 | 0.936 | > 2 | 0.872 | – | 0.986 | > 2
CGTH-W-1 (thyroid, adherent) | 0.684 | 2.04 | 0.928 | > 0.256 | 0.874 | 19.2 | 0.977 | > 2 | 0.957 | > 16 | 0.831 | 1.26
CHP-126 (neuroblastoma, suspension) | 0.813 | 5.59 | 0.973 | > 0.256 | 0.921 | > 20 | 0.304 | 0.0345 | 0.987 | > 16 | 0.987 | > 2
CL-11 (large intestine, adherent) | 0.819 | 6.65 | 0.941 | > 0.256 | 0.961 | > 20 | 0.922 | > 2 | 0.983 | > 16 | 0.987 | > 2
CMK (acute myeloid leukaemia, suspension) | 0.819 | 4.58 | 0.508 | 0.0168 | 0.662 | 3.26 | 0.732 | 0.505 | 0.892 | – | 0.991 | > 2
COLO-320-HSR (large intestine, suspension) | 0.814 | 4.56 | 0.594 | 0.0279 | 0.557 | 1.75 | 0.991 | > 2 | 0.938 | > 16 | 0.989 | > 2
COLO-668 (small cell lung carcinoma, adherent) | 0.894 | > 10 | 0.824 | 0.152 | 0.845 | 14.5 | 0.924 | > 2 | 0.952 | > 16 | 0.982 | > 2
COLO-684 (endometrium, suspension) | 0.79 | 5.05 | 0.668 | 0.05 | 0.703 | 5.03 | 0.977 | > 2 | 0.913 | > 16 | 0.984 | > 2
COLO-800 (melanoma, adherent) | 0.745 | 3.07 | 0.988 | > 0.256 | 0.928 | > 20 | 0.974 | > 2 | 0.978 | > 16 | 0.985 | > 2
COLO-824 (breast, adherent) | 0.799 | 4.93 | 0.977 | > 0.256 | 0.818 | 11.6 | 0.809 | 1.07 | 0.832 | 10.5 | 0.986 | > 2
COR-L88 (small cell lung carcinoma, adherent) | 0.976 | > 10 | 0.696 | 0.0638 | 0.933 | > 20 | 0.688 | 0.469 | 0.936 | > 16 | 0.968 | > 2
COR-L95 (small cell lung carcinoma, adherent) | 0.929 | > 10 | 0.921 | > 0.256 | 0.888 | > 20 | 0.562 | 0.189 | 0.952 | > 16 | 0.895 | > 2
COR-L279 (small cell lung carcinoma, suspension) | 0.926 | > 10 | 0.726 | 0.0644 | 0.589 | 2.12 | 0.671 | 0.353 | 0.887 | 14.5 | 0.991 | > 2
CP66-MEL (melanoma, adherent) | 0.9 | > 10 | 0.796 | 0.14 | 0.956 | > 20 | 0.959 | > 2 | 0.881 | > 16 | 0.916 | > 2
CPC-N (small cell lung carcinoma, suspension) | 0.696 | 2.35 | 0.651 | 0.0439 | 0.818 | 12.7 | 0.608 | 0.254 | 0.981 | > 16 | 0.971 | > 2
